According to PMC12136788:
Some of the results follow.

T1: UNK ZnF1-3 (human, UniProt Q9C0B0 31-174)
T1 sequence: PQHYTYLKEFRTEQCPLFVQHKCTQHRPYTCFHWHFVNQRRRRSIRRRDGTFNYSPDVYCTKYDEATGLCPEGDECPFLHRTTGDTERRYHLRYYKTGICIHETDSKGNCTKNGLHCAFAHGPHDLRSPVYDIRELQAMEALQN

B1: chr9:130210260:130210261:-_ENSG00000197958_ENST00000361436|hu_mus|FALSE|FALSE (ssRNA)
RNA: GGGAGUUCUACAGUCCGACGAUCGCCCACAGACUGUGCAGUACCCAGGAUCUCCUUGAUAGUUCCAGAAAGUUCUCUAGCCAAAGACCGGUGUCUCAUCUGCCGGGCAAUGUUGACAAUCUCAUCAAAAGUAAUGUUCCCACUCAACAGAGGAUUGAGCAUCA
B2: chr1:39494564:39494565:+_ENSG00000168653_ENST00000372967|hu_hu|hu_hu_hu_mus_True|48_78 (ssRNA)
RNA: GGGAGUUCUACAGUCCGACGAUCAUGCAUUCGCCUCAUCGUUUUGUACCGAAGCAAACACUCUACGAAGUCAUCGAACUCUAUCUUGCACUCUUUCUUCGCCCGGGUCCCACCGAUCCCGUGUGCACACUCUAUCCACUCUUUCAACAGAGGAUUGAGCAUCA
B3: chr4:39507275:39507276:-_ENSG00000109814_ENST00000316423|hu_mus|motif|central (ssRNA)
RNA: GGGAGUUCUACAGUCCGACGAUCACUGGAGGAUUCUCUGGUAUCACCAGUAUCCUUUUUGAAUGCAAACCCCAAGAUAGCGGUCUUCUUAUCGGUCACUGUAUUAAACAGGCUAUCUAUGAUCCGUGAUGCAAACCUCCUCCUCAACAGAGGAUUGAGCAUCA
B4: chr7:151048522:151048523:+_ENSG00000013374_ENST00000566856|hu_mus|hu_hu_hu_mus_True|38_88 (ssRNA)
RNA: GGGAGUUCUACAGUCCGACGAUCCUGUUUCUUAUUUAUUACGAUCUUGAUAUAAUUUUCUUGAAAUCCGAAAGUUUCAGCUAUUUGACACCUCAGGUCUCUGCCAGUGACAUGCAAGCGGGUCUCCAACAAGCUUUUCUUAUCCAACAGAGGAUUGAGCAUCA
B5: chr8:71637431:71637432:+_ENSMUSG00000006273_ENSMUST00000006435|mus_hu|FALSE|FALSE (ssRNA)
RNA: GGGAGUUCUACAGUCCGACGAUCCACGGGGUAGGGAAGUUGCUAUUGCACCCAAGUAACAAAGAACACAGAGAGACCAACAGGACGCAUGGCAGAACUGCAUAGAAGAUCGCUCAGGGCUCACGUCAGGAAGGCGCAGGAAUUCAACAGAGGAUUGAGCAUCA
B6: chr2:24647629:24647630:-_ENSMUSG00000036893_ENSMUST00000134775|mus_mus|FALSE|FALSE (ssRNA)
RNA: GGGAGUUCUACAGUCCGACGAUCGCCGACACUUGGAAGACCCACACCGGCAACUGAAGAGCUUGCCCUUGACGUCCCAAAAGCGCUCCCCGUAGUCGAACCCGAGCUGCUCCCCAGCCUGAAUCAGGCGGGUACUGAAGAAGGCAACAGAGGAUUGAGCAUCA
B7: chr16:8843179:8843180:+_ENSMUSG00000022507_ENSMUST00000023150|mus_hu|FALSE|FALSE (ssRNA)
RNA: GGGAGUUCUACAGUCCGACGAUCUGGGGGAGCUCUAGAGUUUCGUGGUGGAGGAACUUUUCCACACAGGAAGCUGAUCAAAUCUUCUCGACGAAUAGUUCUUCUGCGUUUUUUAACCCAAGCCAACACAUCCUUAUUGCGUCGCAACAGAGGAUUGAGCAUCA
B8: chr10:5827197:5827198:-_ENSG00000057608_ENST00000380191|perfect_dup|motif|central (ssRNA)
RNA: GGGAGUUCUACAGUCCGACGAUCAUACAGGUACGGGCUUUUACCGUAUCUUGCCAAAGACUCGCUGUAAAGUUUAAUUCGGUUAAUGGUUUCACAACACGGCUGAUCUAAGUAGUCAUCUGUUCUGUACAGUGCAAGAGAAUGCAACAGAGGAUUGAGCAUCA
B9: chr10:62551973:62551974:+_ENSG00000170312_ENST00000395284|hu_hu|FALSE|FALSE (ssRNA)
RNA: GGGAGUUCUACAGUCCGACGAUCUAACAUUUUCGAGAGCAAAUCCAAGCCAUUUUCAUCCAAGUUUUUGACAUGGGAUGCUAGGCUUCCUGGUUUCCAUUUGGGAAAUGUAUUCUUAUAGUCCUGUAAAGAUUCCACUUCUGGCAACAGAGGAUUGAGCAUCA
B10: chr5:4083222:4083223:-_ENSMUSG00000001467_ENSMUST00000001507|perfect_dup|FALSE|FALSE (ssRNA)
RNA: GGGAGUUCUACAGUCCGACGAUCGGUGUGGAUCAUUGUUGUAUAAUUCACAGUGGGAAAAUAUCCAUUGAUGAGGUCAAAUUCAUAUAAACGAAGCAUAGUCGACCAAAUUGUCUUAAUUUGAACAUAGGCAAAAUUUUCUCCCAACAGAGGAUUGAGCAUCA
B11: chr8:17827181:17827182:+_ENSG00000078674_ENST00000519253|hu_mus|FALSE|FALSE (ssRNA)
RNA: GGGAGUUCUACAGUCCGACGAUCGCUUUCAAAGGGUUUUGGAAAAGCCAUAUACUCUGUUUUCCCUGAAGGAUUUUGAGCUAAUGGCUGCUGCUGUUCAGUAGGUGUAGAAACAUUCUGAGAAAAAUCUCCAAAAUUAGAAGGCAACAGAGGAUUGAGCAUCA
B12: chr4:124323795:124323796:+_ENSG00000164056_ENST00000339241|hu_mus|motif|central (ssRNA)
RNA: GGGAGUUCUACAGUCCGACGAUCCCACUCCUAUUGAGGCCCAUCCAAGGCAGGAGAGACUCGAGAAGAAAAUCUGCCUCGGAUACCAACAGCCAAAGUUUGGAAGCUAGACAUUCCGCGGAGGUCCAACCCACCUCCAGAAGUCAACAGAGGAUUGAGCAUCA
B13: chr3:20019835:20019836:+_ENSG00000144566_ENST00000273047|hu_mus|FALSE|FALSE (ssRNA)
RNA: GGGAGUUCUACAGUCCGACGAUCCAUAAAUAUUUCAUUUACAUUCAUUGAUGUCUUAGCUGAUGUCUCCAUAAAUAAUAAGCUGUUGUCAUCUGCAUAGGACUGUGCUUCCUGGAAGUCAACAGCUCUUUUAUUUGCUAAGUCCAACAGAGGAUUGAGCAUCA
B14: chr11:87793471:87793472:-_ENSMUSG00000020483_ENSMUST00000020775|mus_mus|mus_mus_mus_hu_False|8_108 (ssRNA)
RNA: GGGAGUUCUACAGUCCGACGAUCUGGGGGCUGGGGAAAAAGAAUAAGCUGGAUCCCCCACCCCCCCACAUUGUCAACCCUACACGAGAGUUUUGAAGGCGACUCAUGAAAAUCAGCAGCUCAAACGAAUGACAACCCCCCACCCAACAGAGGAUUGAGCAUCA
B15: 90057964_90058084_118_5pUTR_ENSMUSG00000032363_ENSMUST00000113059|mouse|control|control (ssRNA)
RNA: GGGAGUUCUACAGUCCGACGAUCAUGGCCCGGACGGGGUGGCCGCAGGACGACCCCUGUGCACUCCUUCGUCUACGCCGUUGCGUCCCAGCCGGGCCUGGGUCCGACUCAGGACAUGCCUGGCUUUAAACUCUUCCCAAGGUCCAACAGAGGAUUGAGCAUCA
B16: chr4:76721835:76721836:+_ENSG00000138768_ENST00000264904|hu_mus|hu_hu_hu_mus_True|8_18 (ssRNA)
RNA: GGGAGUUCUACAGUCCGACGAUCGUUUGGCUGGGGUUUCUGAGACGCUCUGGAAUAUAACUCAUGUUUGCUAAUAAAUCCUAGUUUCUCUAUGAAAUUCUCUUUGCCAAUCCUCUUUCAAUCAGUUGUUUUAGCUUUCUCUUUCAACAGAGGAUUGAGCAUCA
B17: 13816878_13816998_1800_CDS_ENSMUSG00000006586_ENSMUST00000098257|mouse|control|control (ssRNA)
RNA: GGGAGUUCUACAGUCCGACGAUCCGGGGUGGUAGACCUCGGAGUGGCUGCUGGUGGUGUGUCCAUUGGGCUCCCAGCCCCACUGCUGGGUGUGACUGAGGAGCUGACAGCGGGCGUGUCUCCCUGCUGUGGGGCCUGCAGGGUCAACAGAGGAUUGAGCAUCA
B18: chr4:140556289:140556290:+_ENSMUSG00000036622_ENSMUST00000037055|mus_mus|mus_mus_mus_hu_False|18_88 (ssRNA)
RNA: GGGAGUUCUACAGUCCGACGAUCGAUGGAGCUCACCAGGCCCCCUUUGGCUGUGCAGAACCCUGUGCGGGUCACCACUGCCAGGACGUGCGGUCCCACAUAGGCCCGGGCCUGCAAAAUGAGGGUGCCGCAGAAGAGUGUGUGCAACAGAGGAUUGAGCAUCA
B19: chr14:59828787:59828788:+_ENSMUSG00000035469_ENSMUST00000043227|mus_hu|FALSE|FALSE (ssRNA)
RNA: GGGAGUUCUACAGUCCGACGAUCGAGUGAAGAUGGGCCACUUUCCGACAUCCACCAUGACUCUGGCUUCAAGCAAUUCCUAUAAAUAAGCCGACAUCUCUGAGUCCAGGAGGUUGAGGCUGCAGUGAGCCGUGUUCACACCACCAACAGAGGAUUGAGCAUCA
B20: chr16:17043922:17043923:+_ENSMUSG00000063358_ENSMUST00000069107|mus_mus|FALSE|FALSE (ssRNA)
RNA: GGGAGUUCUACAGUCCGACGAUCACGGCCUGCUGCCAGAACUCUCUGGACUGAAGGAAUUCCGUGAAAGUAUAAAAGCUGCUACUACCAGAAACUGCCCCUCUGAAAGGCUCAAAGGAGUCAAGAGUGGGUAAGCUGAGACGGCAACAGAGGAUUGAGCAUCA
B21: 10525023_10525143_4246_3pUTR_ENSMUSG00000024743_ENSMUST00000169121|mouse|control|control (ssRNA)
RNA: GGGAGUUCUACAGUCCGACGAUCCACCCCUCCACCCAGGCUGGGUCACUACUAUUCCUAGUAGUCUGAGGGGAGAACAGCUAUGUGGGGGGAUGCUGAGCUGACUGGCUAAGAGGUGCAGGAGCACGCUCUGCAUAAACCCGCCAACAGAGGAUUGAGCAUCA
B22: chr2:172809444:172809445:+_ENSG00000128708_ENST00000264108|hu_mus|FALSE|FALSE (ssRNA)
RNA: GGGAGUUCUACAGUCCGACGAUCCUCAUCAACUUUAGAUGAAUAUUCAACACGGAACAGUGUUGACAGGCUACCAGCAAUAUAGUACAGCAAGAUCUUCAGGCCCUUGUAACCGAAAGCAGUUUCAUCAUCCCCAAAGAGCUGCAACAGAGGAUUGAGCAUCA

Target: T1, UNK ZnF1-3
Assay: nsRBNS (natural sequence RNA bind-n-seq); RBNS binding buffer (assumed for nsRBNS): 25 mM Tris pH 7.5, 150 mM KCl, 3 mM MgCl2, 0.01% Triton X-100, 500 ug/ml BSA, 20 U/ml SUPERase-In, 4 C; UNK is unkempt and MSI1 is Musashi-1; names of the RNAs are library labels; protein concentration not given here; high values mean tight binding

In order of rising binding signal:
1. B9  0.477 enrichment R
2. B16  0.555 enrichment R
3. B7  0.575 enrichment R
4. B8  0.588 enrichment R
5. B15  0.645 enrichment R
6. B2  0.706 enrichment R
7. B13  0.742 enrichment R
8. B17  0.779 enrichment R
9. B10  0.915 enrichment R
10. B3  0.987 enrichment R
11. B12  0.998 enrichment R
12. B20  1.04 enrichment R
13. B21  1.1 enrichment R
14. B6  1.12 enrichment R
15. B19  1.12 enrichment R
16. B4  1.13 enrichment R
17. B1  1.22 enrichment R
18. B11  1.26 enrichment R
19. B22  1.45 enrichment R
20. B5  1.49 enrichment R
21. B18  1.71 enrichment R
22. B14  1.81 enrichment R
